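Assay format: 96-well plates, 48-hour exposure. GI50 = concentration required for 50% inhibition of growth. TGI is the concentration that stops growth completely.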

The subject of the assay is NCI-H322M lung. The assay is described as follows: NCI tumour cell line growth inhibition, 48 h.
Turning to `CCO/C=N/C1=C(C#N)C(c2ccc(Cl)cc2)c2sc3c(C)cccc3c2O1` (stereo unspecified), the GI50 is 1.2 µM and the TGI stood at 23.5 µM.

For `COc1ccc(/C(=N\NC(N)=S)c2ccc(Cl)cc2)cc1OC`, the GI50 is 6.25 µM and the TGI was determined as 24.9 µM.

For `CCCC(=O)NC(c1cccnc1)c1cc(C(C)(C)C)c2cccnc2c1O` (stereo unspecified), the GI50 was 6.94 µM and the TGI was above 100 µM.
